According to publication PMC12136788:
The list shows a part of the results.

T1: UNK ZnF1-3 (human, UniProt Q9C0B0 31-174)
T1 sequence: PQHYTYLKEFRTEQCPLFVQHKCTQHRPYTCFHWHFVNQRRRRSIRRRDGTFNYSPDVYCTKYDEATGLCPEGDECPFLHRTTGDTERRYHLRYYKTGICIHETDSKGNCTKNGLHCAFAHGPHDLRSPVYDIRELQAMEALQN

B1: chr17:56552419:56552420:-_ENSMUSG00000013236_ENSMUST00000086828|mus_mus|mus_mus_mus_hu_False|1_28 (ssRNA)
RNA: GGGAGUUCUACAGUCCGACGAUCAAAAAAUACACUAUUUAAAAAAAAUGAAAUGUCACGGGAUACAGUUACACUGAGAGUUUUAAAAGAAAGCUGGAUUCUGGUCCUUGCCAAAAGUCCCCAGGCUGCAGAGCGGGGCAGAGGCAACAGAGGAUUGAGCAUCA
B2: chr16:11201500:11201501:-_ENSMUSG00000005846_ENSMUST00000119953|perfect_dup|motif|central (ssRNA)
RNA: GGGAGUUCUACAGUCCGACGAUCGUUGAAUUGGGUUCAUCCUUCGUAAAUAAACAGAUAUCUUCUGAAUCUGAUCGAAUACGGUGAGGCAAGGUCCUGUUCUUUAUCCAGCUGCUUCCGUGCUGUCGGGGCCGCUGGAGUCGACAACAGAGGAUUGAGCAUCA
B3: 33718304_33721134_463_CDS_ENSG00000134759_ENST00000351393|human|control|control (ssRNA)
RNA: GGGAGUUCUACAGUCCGACGAUCUCUGCAAUCAUCAUUGCCACAUGCUAAUAUUGGUACUUCUGGACCCUUUUUAGACCAGAGUCGAACAGCAGAAUCUGCAGCUGCAGAAACGAUCAGUGUACAUAAUGCAGGAUCUGAUGUCAACAGAGGAUUGAGCAUCA
B4: chr14:52433459:52433460:+_ENSG00000186469_ENST00000556752|hu_mus|FALSE|FALSE (ssRNA)
RNA: GGGAGUUCUACAGUCCGACGAUCGAUGGUUCUCCUUCCUCUCUUUAAAUGCUGUGGACGAGAAAGGCGCCCACUUUGCUAGGAACUCUACAUGUAUGUCCCAGGAGCCCCAACACUCUUCAGCCUCCUCUCAGAGACUUAAAGCAACAGAGGAUUGAGCAUCA
B5: chr1:60041781:60041782:+_ENSMUSG00000041040_ENSMUST00000036540|mus_hu|mus_mus_mus_hu_False|28_68 (ssRNA)
RNA: GGGAGUUCUACAGUCCGACGAUCAAGUUUACAAUAGUAAAGUAAAUGCAGUAGUGGCAAAUUUUCUUUACUUUAGUUUCACAAAAGAAAAUCUUUAUAACCCAGUCCAAUCCCAGAACAUAGUGAAAGCUAUAAAUUCUGACUCAACAGAGGAUUGAGCAUCA
B6: 19711551_19711671_88_5pUTR_ENSMUSG00000002808_ENSMUST00000002885|mouse|control|control (ssRNA)
RNA: GGGAGUUCUACAGUCCGACGAUCCUCUCUCGAUUUUCCGUUCCACAGGCUCCUGGCUUGGGGGCUCCGGACACCGGGACACCGGCCUGGGAAAGCCGCGUGAAUCGCCCCAGCUCUUUCUGCUCUGGCGGAGGCUUACCAAAGCAACAGAGGAUUGAGCAUCA
B7: chr16:94664741:94664742:+_ENSMUSG00000040785_ENSMUST00000117648|mus_hu|mus_mus_mus_hu_False|88_88 (ssRNA)
RNA: GGGAGUUCUACAGUCCGACGAUCUGGUACUGAUCUUGGUAGCUGAUACUCAGAAGAAAGGCUGGCCAAGGGUGUAUAUAUGCUGGUGUACUGGGGCAAACCUGGUAACACGUUUAUGUAUGCUGGCGGUGUCUGGGUGAUAUCCAACAGAGGAUUGAGCAUCA
B8: chr1:204375296:204375297:-_ENSG00000158615_ENST00000367188|hu_mus|FALSE|FALSE (ssRNA)
RNA: GGGAGUUCUACAGUCCGACGAUCUGUUCACUUCUUAACAUUGCUGUACAACAGUAAGUCCUUUGACUCGAUCCUCAGUCUAUUAAACAUUUUUUCUCUGUGCUCAAAGGCCAAGCAGUAGCCAAUGGCAACUUCUGUUUCUUGCAACAGAGGAUUGAGCAUCA
B9: chr12:48362563:48362564:+_ENSG00000134291_ENST00000256686|hu_hu|hu_hu_hu_mus_False|88_108 (ssRNA)
RNA: GGGAGUUCUACAGUCCGACGAUCUCCGAAGGGUGAAUCGAUAGACCCAUAGACUCUAAACUGUAAUCACUUUGUAUGGGGAAGGAAAAGAAACGCCAAAAACUUUCCAAAAAGCGGGGGUGGGGUGAGGCGGGAGGGGGAGGUCAACAGAGGAUUGAGCAUCA
B10: 116039567_116040058_1445_CDS_ENSMUSG00000020777_ENSMUST00000066587|mouse|control|control (ssRNA)
RNA: GGGAGUUCUACAGUCCGACGAUCACCAGCAUUGGCUGUCCAGGUAGUAAAAGCCUUCAGCCCAGCUGUGAGGGCAUGAAGCUCAGGCAGCUCACUCAGGUCGCCUUGGCCAAUGCUCUCAUUAAUCCGCAUGUAGGUCUCCUUCAACAGAGGAUUGAGCAUCA
B11: 25636282_25639098_1073_CDS_ENSMUSG00000020646_ENSMUST00000110942|mouse|control|control (ssRNA)
RNA: GGGAGUUCUACAGUCCGACGAUCUGUCUGGAUAUUCCAGUUAUCAAGAAACAUCUUAAAACUUGUUGACAUCUCUAUUUGCUGAAUUCUCAAGUUGGAAAUUAAGUCCCAGCGAGCCACUCCAUUCUUGUCGUAUCCUCUGAACAACAGAGGAUUGAGCAUCA
B12: chr1:60041781:60041782:+_ENSMUSG00000041040_ENSMUST00000036540|mus_hu|mus_mus_mus_hu_False|18_78 (ssRNA)
RNA: GGGAGUUCUACAGUCCGACGAUCAAGUUUACAAUAGUAAAGUAAAUGCAGUAGUGGAAUGGCAAGUUUUAUUUUCCUUCACAAAAGAAAAUCUUUAUAACCCAGUCCUAGUCUUGGCAGAGAAAGCAGCUAUAAAUUCUGACUCAACAGAGGAUUGAGCAUCA
B13: chr6:38652254:38652255:-_ENSG00000124767_ENST00000373365|hu_hu|hu_hu_hu_mus_False|8_98 (ssRNA)
RNA: GGGAGUUCUACAGUCCGACGAUCCGAGAACUUCAUAAUGGGAAAAUCAAGCUUCUGCAGGAGGGUCAGUCCAAGAACCCUCGUAUAAAAAUCCAGGGACUUCUUAGGAUCCUUAAUUCUUAGCAUCGUCUGCUGCAGUAGAAACAACAGAGGAUUGAGCAUCA
B14: chr7:109309172:109309173:-_ENSMUSG00000063550_ENSMUST00000070165|mus_hu|FALSE|FALSE (ssRNA)
RNA: GGGAGUUCUACAGUCCGACGAUCUGACUUGGCUGUGCCUGUUGUUUGUAAAGCCUUUGGCCGGACUCUAGUGGCAGGGCGGGGUGUCAGUUUAUAAUGAGUAGGUGUAGUAAGAGCCUUCUGGGCUGCUGGAUUUGUUGGUUUCAACAGAGGAUUGAGCAUCA
B15: chr1:163112212:163112213:-_ENSG00000143248_ENST00000313961|hu_hu|hu_hu_hu_mus_False|48_78 (ssRNA)
RNA: GGGAGUUCUACAGUCCGACGAUCUUUUAUUAUCAGUAAGAGUGAGUUACAUACUAGAUAAAGUAUUGGAUACAAUAAUCAGGAAACAAACACAAUUGGUCCAGAAUUUAAAACUUUAUGAGCGAAGUGCUGGCACAGGACUUACAACAGAGGAUUGAGCAUCA
B16: chr10:127947519:127947520:-_ENSMUSG00000025366_ENSMUST00000026427|mus_mus|FALSE|FALSE (ssRNA)
RNA: GGGAGUUCUACAGUCCGACGAUCGCUCAGGUCCCUGCCCUGGGAGCCCGCAGGAUAAAGGCCGUGCAGAAAGGAGUAACAUGUGAUCCUCUUUGGUCAAGCAAAGACCCAUAUACGGGCCCAGAAGGCAAAAGGGCACAGGCUCAACAGAGGAUUGAGCAUCA
B17: chr3:105756983:105756984:-_ENSMUSG00000000563_ENSMUST00000118209|mus_hu|motif|central (ssRNA)
RNA: GGGAGUUCUACAGUCCGACGAUCAGCAAAGUCUGCAACAAAGGGACCAUAUUUUUUAAUUCCAUAGACCAUUACACCGGGUACUGAUAGGGCAGUGAAGGUCUCUGCGCUAAUCACAUAUAUUUCUUUGGAUAAAGCGUACAACAACAGAGGAUUGAGCAUCA
B18: chr4:25749455:25749456:-_ENSG00000091490_ENST00000264868|hu_hu|hu_hu_hu_mus_False|38_58 (ssRNA)
RNA: GGGAGUUCUACAGUCCGACGAUCGCACUAUGACCUCUAGAAAAAUCCACAGGGGGAAAAAAUGUAAACCAAUGUACAAAGCUAUUGCCUUCCCUGUAUUUCCAGGCUUUGUCUCAAGGCUCCUUCUAGCUGCUGGAUUUGGGACAACAGAGGAUUGAGCAUCA
B19: chr9:96246283:96246284:-_ENSMUSG00000032412_ENSMUST00000034983|mus_hu|motif|central (ssRNA)
RNA: GGGAGUUCUACAGUCCGACGAUCCUGAAGCAUAACCCACAUCGUGAAUGAGAAGAGUGCAGCCAGGAACCCAUAAAAAACGGGGUAGAAGAGCAAGAUCAAACCCCAGCUCUUGGCGGUGCGCCCCAGGAAUUCUCCGGUGGUCAACAGAGGAUUGAGCAUCA
B20: chr7:140404665:140404666:+_ENSG00000090266_ENST00000247866|hu_hu|hu_hu_hu_mus_False|1_18 (ssRNA)
RNA: GGGAGUUCUACAGUCCGACGAUCUGCUCCUACUCGUCCAGAGAGUUUACAGUGUCAGUCCUCGUCAUCAGGAGGGAUUCCCAGUUCUUCAUCUGUCCACUGUGAAGGAUCUGGAUACGGAAAGUGACCCAGCACAGCUUCUGACAACAGAGGAUUGAGCAUCA
B21: chr10:90581586:90581587:-_ENSMUSG00000061904_ENSMUST00000076694|mus_hu|FALSE|FALSE (ssRNA)
RNA: GGGAGUUCUACAGUCCGACGAUCAGCUUCCAUAGGAGCCAGGGCAAUGUCAGCAAAGAAUUCAGCACUGGCAGAGGCAGCCAAAUAUAGUGAUGUGCGCCAGAGAUAAGUAUUCUCCUCUCCAAGCAUAUUGCUAUACAAGACCAACAGAGGAUUGAGCAUCA
B22: chr9:35286173:35286174:+_ENSMUSG00000038119_ENSMUST00000042842|mus_mus|FALSE|FALSE (ssRNA)
RNA: GGGAGUUCUACAGUCCGACGAUCAGUAUUAUUGUUACUUGAUGGAACAUACGUCCAUUUCAGCAUGAUCUGAGUGUCGCUAACAGCCUCUGUGUAUGCGAUGUGAGGUCCAGUUAUUGGGCGAUUGGAAAAACGAUUUGGGAACAACAGAGGAUUGAGCAUCA

Target: T1, UNK ZnF1-3
Experiment: nsRBNS (natural sequence RNA bind-n-seq); RBNS binding buffer (assumed for nsRBNS): 25 mM Tris pH 7.5, 150 mM KCl, 3 mM MgCl2, 0.01% Triton X-100, 500 ug/ml BSA, 20 U/ml SUPERase-In, 4 C; UNK is unkempt and MSI1 is Musashi-1; names of the RNAs are library labels; protein concentration not given here; high values mean tight binding

Binder	binding signal [enrichment R]
B1	3.13
B2	0.351
B3	0.897
B4	0.807
B5	0.374
B6	0.832
B7	0.998
B8	0.632
B9	2.14
B10	0.651
B11	0.887
B12	1.01
B13	0.92
B14	0.804
B15	1.18
B16	1.21
B17	2.26
B18	1.18
B19	1.55
B20	1.31
B21	2.02
B22	0.899
